Assay results reported in patent publication US20030091584A1.
Some entries of the source have several records that differ or are many. The list is limited to them. The source may hold further records. The records of an entry read as repeated measurements on other runs, samples or individuals; one of them may be the mean.

Target: RSV F protein (immobilized on the BIAcore sensor chip) (respiratory syncytial virus)
Experiment: BIAcore, immobilized F protein

Sequence of RSV F protein (immobilized on the BIAcore sensor chip) (respiratory syncytial virus) (P03420 26-524): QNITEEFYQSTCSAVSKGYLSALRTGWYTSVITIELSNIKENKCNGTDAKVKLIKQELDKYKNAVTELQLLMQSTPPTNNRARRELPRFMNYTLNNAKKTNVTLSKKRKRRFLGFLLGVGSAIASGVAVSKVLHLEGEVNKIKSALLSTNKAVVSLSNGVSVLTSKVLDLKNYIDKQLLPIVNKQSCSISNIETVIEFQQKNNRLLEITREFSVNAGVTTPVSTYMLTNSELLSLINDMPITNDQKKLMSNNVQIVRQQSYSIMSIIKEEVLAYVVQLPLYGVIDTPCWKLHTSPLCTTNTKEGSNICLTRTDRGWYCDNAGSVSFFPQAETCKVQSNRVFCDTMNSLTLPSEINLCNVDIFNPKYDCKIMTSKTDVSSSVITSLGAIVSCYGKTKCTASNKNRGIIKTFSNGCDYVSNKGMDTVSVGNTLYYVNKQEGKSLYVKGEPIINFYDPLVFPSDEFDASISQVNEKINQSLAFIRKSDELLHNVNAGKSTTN

| Binder | kon | koff |
| --- | --- | --- |
| L1-7E5 (Fab fragment) (Fab, V domains shown) VH: QVTLRESGPALVKPTQTLTLTCTFSGFSLSTAGMSVGWIRQPPGKALEWLADIWWDDKKDYNPSLKSRLTISKDTSKNQVVLKVTNMDPADTATYYCARDMITNFYFDVWGAGTTVTVSS VL: DIQMTQSPSTLSASVGDRVTITCSASSSVGYMHWYQQKPGKAPKLLIYDTFRLASGVPSRFSGSGSGTEFTLTISSLQPDDFATYYCFQGSGYPFTFGGGTKLEIK | 329000, 357000, 405000, 335000, 426000 M⁻¹ s⁻¹ [lines of one column] |  |
| L2-15B10 (Fab fragment) (Fab, V domains shown) VH: QVTLRESGPALVKPTQTLTLTCTFSGFSLSTAGMSVGWIRQPPGKALEWLADIWWDDKKDYNPSLKSRLTISKDTSKNQVVLKVTNMDPADTATYYCARDMITNFYFDVWGAGTTVTVSS VL: DIQMTQSPSTLSASVGDRVTITCSASSSVGYMHWYQQKPGKAPKLLIYDTFRLASGVPSRFSGSGSGTEFTLTISSLQPDDFATYYCFQGSGYPFTFGGGTKLEIK |  | 0.000134 s⁻¹, 0.000416 s⁻¹, 0.00027 s⁻¹ [one cell] |
